From patent publication CN111690066A

Target: IL-4Rα on TF-1 cells (human) (UniProt P24394)
Test: cell-based or functional assay

EC50 of neutralisation of IL-4-induced TF-1 cell proliferation: 67 pM
EC50 of neutralisation of IL-13-induced TF-1 cell proliferation: 97 pM
B1: Tab2 (L1012H1031) (antibody, from another filing, V domains shown)
VH: EVQLVESGGGLVQPGGSLRLSCAASGFTFSRNAMFWVRQAPGKGLEWVSGIGTGGATSYADSVKGRFTISRDNAKNSLYLQMNSLRAEDTAVYYCARGRYYFDYWGQGTLVTVSS
VL: [no letters for about 100 residues]
